Assay results: the antibiotic and cytotoxicity screens of Wong et al. (2023)
The list shows a part of the results.

What follows are compounds tested on HepG2 (assay: cytotoxicity call (relative viability < 0.9)). Details: 10 µM.

SMILES	cytotoxicity call
C[C@@H]1CN([C@H](C)CO)C(=O)c2ccccc2-c2ccccc2CO[C@H]1CN(C)C(=O)Nc1ccc(-c2ccccc2)cc1	active
C[C@H](CO)N1C[C@H](C)[C@H](CN(C)Cc2ccc(-c3ccccc3)cc2)Oc2ccc(NS(=O)(=O)c3ccc(Cl)cc3)cc2CC1=O	inactive
COc1ccc(CN(C)C[C@@H]2OCCCC[C@H](C)Oc3ccc(NS(=O)(=O)c4ccc(F)cc4)cc3C(=O)N([C@H](C)CO)C[C@@H]2C)cc1	active
CO[C@H]1CN(C)C(=O)c2ccc(NC(=O)C3CC3)cc2OC[C@H](C)N(C(=O)Cc2ccccn2)C[C@H]1C	inactive
OC[C@@H]1CC[C@@H]2O[C@H](CCc3ccc(C#Cc4ccccc4)cc3)[C@H](n3cc(-c4ccccc4)nn3)C[C@@H]2O1	inactive
Cc1ccc(S(=O)(=O)Nc2ccc3c(c2)C(=O)N([C@@H](C)CO)C[C@H](C)[C@H](CN(C)C(=O)Nc2ccccc2)OCCCC[C@@H](C)O3)cc1	inactive
O=C(CCNc1n[nH]c(=O)[nH]c1=O)NCc1ccco1	inactive
CNC[C@@H]1Oc2ccc(NS(=O)(=O)c3cn(C)cn3)cc2C(=O)N([C@H](C)CO)C[C@@H]1C	inactive
Cl.N#Cc1ccc2[nH]cc(CCCCN3CCN(c4ccc5oc(C(N)=O)cc5c4)CC3)c2c1	active
COCC(=O)Nc1ccc2c(c1)C(=O)N(C)C[C@@H](OC)[C@H](C)CN(C(=O)c1ccccc1F)[C@@H](C)CO2	inactive
CO[C@@H]1CN(C)C(=O)c2cc(NS(C)(=O)=O)ccc2OC[C@H](C)N(C(=O)c2ccc3c(c2)OCO3)C[C@@H]1C	inactive
CC(=O)OC[C@]12[C@H](OC(=O)c3ccccc3)C[C@@H]3[C@@H](OC(C)=O)[C@]1(OC3(C)C)[C@H](C)C[C@H](OC(C)=O)[C@@H]2OC(C)=O	inactive
CN(C)C(=O)C[C@@H]1C=C[C@@H](NC(=O)C2CCOCC2)[C@@H](CO)O1	inactive
C[C@H]1CN([C@@H](C)CO)C(=O)CCCn2cc(nn2)CO[C@@H]1CN(C)C(=O)c1cc(-c2ccccc2)on1	inactive
C[C@H](CO)N1C[C@H](C)[C@@H](CN(C)CC2CCOCC2)Oc2cc(C#Cc3ccccc3F)ccc2S1(=O)=O	inactive
CN(C)CCNC(=O)[C@@H]1CCS(=O)(=O)[C@H]2CN(C(=O)Nc3ccccc3)C[C@@H]12	inactive
COc1ccc(NC(=O)N(C)C[C@@H]2Oc3cc(C#CCN(C)C)ccc3S(=O)(=O)N([C@H](C)CO)C[C@H]2C)cc1	inactive
Cc1nc(Cn2cnc3c2c(=O)n(C)c(=O)n3C)no1	inactive
COc1ccc(CN(C)C[C@@H]2Oc3ccc(NC(=O)Nc4ccc(C(F)(F)F)cc4)cc3C(=O)N([C@H](C)CO)C[C@H]2C)cc1	active
Cn1c2c(c(=O)n(C)c1=O)/N=N\c1c(c(=O)n(C)c(=O)n1C)/N=N\2	inactive

These compounds were tested on S. aureus RN4220 (assay: growth inhibition call (relative growth <= 0.2)). Details: 50 µM.

SMILES	growth inhibition call
Cc1ccc(S(=O)(=O)Nc2ccc3c(c2)CC(=O)N([C@@H](C)CO)C[C@H](C)[C@@H](CN(C)S(=O)(=O)c2ccccc2)O3)cc1	inactive
Cn1c(=O)c2c(nc(N3CCNCC3)n2CC(=O)c2ccc(Cl)cc2)n(C)c1=O	inactive
CCC(=O)N(C)C[C@@H]1Oc2ncc(C#C[C@H](C)O)cc2C(=O)N([C@@H](C)CO)C[C@H]1C	inactive
O=C1c2c(O[C@@H]3O[C@H](CO)[C@@H](O)[C@H](O)[C@H]3O)cc(O)cc2O[C@@]1(O)Cc1ccc(O)cc1	inactive
O=C(C[C@H]1C[C@H]2c3cc(NS(=O)(=O)c4ccc(F)cc4)ccc3O[C@H]2[C@H](CO)O1)NCc1cccnc1	inactive
C[C@@H]1CN([C@H](C)CO)S(=O)(=O)c2ccc(C#CCN(C)C)cc2O[C@H]1CN(C)Cc1ccccc1F	inactive
N#Cc1ccc(N2CCCNCC2)nc1	inactive
COc1ccc(NC(=O)N(C)C[C@@H]2OCCCC[C@@H](C)Oc3ccc(NC(=O)Nc4ccc(C(F)(F)F)cc4)cc3C(=O)N([C@@H](C)CO)C[C@H]2C)cc1	inactive
CCS(=O)(=O)Nc1ccc2c(c1)C(=O)N(C)C[C@H](OC)[C@@H](C)CN(C(=O)c1ccc3c(c1)OCO3)[C@H](C)CO2	inactive
COc1ccc(S(=O)(=O)N(C)C[C@@H]2Oc3ccc(NS(=O)(=O)c4cn(C)cn4)cc3CC(=O)N([C@@H](C)CO)C[C@H]2C)cc1	inactive
O=C(C[C@@H]1C[C@H]2c3cc(NS(=O)(=O)c4ccccc4)ccc3O[C@H]2[C@H](CO)O1)NC1CCCCC1	inactive
Cc1noc(C)c1S(=O)(=O)N(C)C[C@@H]1Oc2ccc(NC(=O)CCC(F)(F)F)cc2CC(=O)N([C@@H](C)CO)C[C@@H]1C	inactive
C[C@H](CO)N1C[C@H](C)[C@@H](CN(C)C(=O)NC2CCCCC2)Oc2c(NS(C)(=O)=O)cccc2C1=O	inactive
COCC(=O)N(C)C[C@H]1Oc2cc(C#CCN(C)C)ccc2S(=O)(=O)N([C@@H](C)CO)C[C@H]1C	inactive
C[C@@H]1CCCCO[C@H](CN(C)Cc2ccncc2)[C@H](C)CN([C@H](C)CO)C(=O)c2cc(NC(=O)Nc3ccc4c(c3)OCO4)ccc2O1	inactive
C[C@@H]1CN([C@H](C)CO)C(=O)c2cccc(NC(=O)Nc3cccc4ccccc34)c2O[C@@H]1CN(C)C(=O)Nc1ccc(C(F)(F)F)cc1	inactive
COc1ccc(COC[C@@]23Oc4ccccc4[C@@H](NC(=S)N2C)[C@H]3CO[Si](C)(C)C(C)(C)C)cc1	inactive
C[C@@H]1CN([C@@H](C)CO)C(=O)c2cc(NC(=O)CCN3CCOCC3)ccc2O[C@@H]1CN(C)S(=O)(=O)c1cccs1	inactive
C[C@@H]1CCCCO[C@H](CN(C)Cc2ccc(C(=O)Nc3ccccc3N)cc2)[C@@H](C)CN([C@H](C)CO)C(=O)c2cc(NS(=O)(=O)c3ccccc3)ccc2O1	inactive
CCc1ccc(NC(=O)C2CCN(S(=O)(=O)c3c(C)[nH]c(=O)[nH]c3=O)CC2)cc1	inactive

SMILES	growth inhibition call
C[C@@H]1CN([C@H](C)CO)C(=O)c2ccccc2-c2ccccc2CO[C@H]1CN(C)C(=O)Nc1ccc(-c2ccccc2)cc1	inactive
C[C@H](CO)N1C[C@H](C)[C@H](CN(C)Cc2ccc(-c3ccccc3)cc2)Oc2ccc(NS(=O)(=O)c3ccc(Cl)cc3)cc2CC1=O	inactive
COc1ccc(CN(C)C[C@@H]2OCCCC[C@H](C)Oc3ccc(NS(=O)(=O)c4ccc(F)cc4)cc3C(=O)N([C@H](C)CO)C[C@@H]2C)cc1	inactive
CO[C@H]1CN(C)C(=O)c2ccc(NC(=O)C3CC3)cc2OC[C@H](C)N(C(=O)Cc2ccccn2)C[C@H]1C	inactive
OC[C@@H]1CC[C@@H]2O[C@H](CCc3ccc(C#Cc4ccccc4)cc3)[C@H](n3cc(-c4ccccc4)nn3)C[C@@H]2O1	inactive
Cc1ccc(S(=O)(=O)Nc2ccc3c(c2)C(=O)N([C@@H](C)CO)C[C@H](C)[C@H](CN(C)C(=O)Nc2ccccc2)OCCCC[C@@H](C)O3)cc1	inactive
O=C(CCNc1n[nH]c(=O)[nH]c1=O)NCc1ccco1	inactive
CNC[C@@H]1Oc2ccc(NS(=O)(=O)c3cn(C)cn3)cc2C(=O)N([C@H](C)CO)C[C@@H]1C	inactive
Cl.N#Cc1ccc2[nH]cc(CCCCN3CCN(c4ccc5oc(C(N)=O)cc5c4)CC3)c2c1	inactive
COCC(=O)Nc1ccc2c(c1)C(=O)N(C)C[C@@H](OC)[C@H](C)CN(C(=O)c1ccccc1F)[C@@H](C)CO2	inactive
CO[C@@H]1CN(C)C(=O)c2cc(NS(C)(=O)=O)ccc2OC[C@H](C)N(C(=O)c2ccc3c(c2)OCO3)C[C@@H]1C	inactive
CC(=O)OC[C@]12[C@H](OC(=O)c3ccccc3)C[C@@H]3[C@@H](OC(C)=O)[C@]1(OC3(C)C)[C@H](C)C[C@H](OC(C)=O)[C@@H]2OC(C)=O	inactive
CN(C)C(=O)C[C@@H]1C=C[C@@H](NC(=O)C2CCOCC2)[C@@H](CO)O1	inactive
C[C@H]1CN([C@@H](C)CO)C(=O)CCCn2cc(nn2)CO[C@@H]1CN(C)C(=O)c1cc(-c2ccccc2)on1	inactive
C[C@H](CO)N1C[C@H](C)[C@@H](CN(C)CC2CCOCC2)Oc2cc(C#Cc3ccccc3F)ccc2S1(=O)=O	inactive
CN(C)CCNC(=O)[C@@H]1CCS(=O)(=O)[C@H]2CN(C(=O)Nc3ccccc3)C[C@@H]12	inactive
COc1ccc(NC(=O)N(C)C[C@@H]2Oc3cc(C#CCN(C)C)ccc3S(=O)(=O)N([C@H](C)CO)C[C@H]2C)cc1	inactive
Cc1nc(Cn2cnc3c2c(=O)n(C)c(=O)n3C)no1	inactive
COc1ccc(CN(C)C[C@@H]2Oc3ccc(NC(=O)Nc4ccc(C(F)(F)F)cc4)cc3C(=O)N([C@H](C)CO)C[C@H]2C)cc1	inactive
Cn1c2c(c(=O)n(C)c1=O)/N=N\c1c(c(=O)n(C)c(=O)n1C)/N=N\2	inactive
